Experimental data published in paper PMC12102759.

B1: CBL peptide 538-553 (E3 ubiquitin-protein ligase CBL), 16-mer library wild type / YES SH3 (YES1 SH3 domain, residues 90-152) (parent)
chain 1: TLRDLPPPPPPDRPYS
chain 2: TGGVTIFVALYDYEARTTEDLSFKKGERFQIINNTEGDWWEARSIATGKNGYIPSNYVAPADS

Variants of: B1
Assay: proteomic peptide phage display deep mutational scan (ProP-PD DMS): M13 P8 16-mer library selected against immobilised GST-tagged bait for four days (rounds), NGS of the eluted pools per day and pseudo-replica
Details: with YES SH3 (YES1 SH3 domain, residues 90-152); bait immobilised on MaxiSorp plates (10 µg), library pre-cleared on GST, 2 h binding at 4 °C, five washes; one round per day, days 1-4; value from days 2 and 3; keep out of graded; scale: average fractional NGS count over selection days 2 and 3

| screen value | Variant |
| --- | --- |
| 7.5e-05 | chain 1 L2S |
| 7.44e-05 | chain 1 L5A |
| 0 | chain 1 L5E |
| 2.53e-05 | chain 1 L5K |
| 2.47e-05 | chain 1 L5N |
| 1.9e-05 | chain 1 L5R |
| 0 | chain 1 L5S |
| 2.68e-05 | chain 1 L5T |
| 1.8e-05 | chain 1 P6A |
| 0 | chain 1 P6D |
| 0 | chain 1 P6E |
| 0 | chain 1 P6F |
| 5.34e-05 | chain 1 P6G |
| 4.35e-05 | chain 1 P6I |
| 3.1e-05 | chain 1 P6K |
| 4.11e-05 | chain 1 P6L |
| 4.77e-05 | chain 1 P6Q |
| 3.94e-05 | chain 1 P6R |
| 1.18e-05 | chain 1 P6T |
| 3.4e-05 | chain 1 P6V |
| 2.33e-05 | chain 1 P6Y |
| 4.52e-05 | chain 1 P7D |
| 3.48e-05 | chain 1 P7R |

| screen value | Variant |
| --- | --- |
| 3.04e-05 | chain 1 P7W |
| 2.11e-05 | chain 1 P8H |
| 1.71e-05 | chain 1 P8Q |
| 1.64e-05 | chain 1 P8R |
| 6.56e-06 | chain 1 P8S |
| 8.17e-06 | chain 1 P8W |
| 1.57e-05 | chain 1 P9D |
| 0 | chain 1 P9E |
| 0 | chain 1 P9G |
| 2.35e-05 | chain 1 P9M |
| 9.84e-06 | chain 1 P9W |
| 3.7e-05 | chain 1 P9Y |
| 8.48e-05 | chain 1 P10G |
| 3.27e-05 | chain 1 P10K |
| 3.6e-05 | chain 1 P14K |
| 5.37e-05 | chain 1 P14N |
| 0 | chain 1 P14R |
| 2.27e-05 | chain 1 R3Q |
| 0 | chain 1 R13D |
| 1.56e-05 | chain 1 S16N |
| 4.71e-05 | chain 1 Y15D |
| 4.16e-05 | chain 1 Y15P |
